For part of its entries the source gives two or more results. Only these are listed. The source may hold further records. Values that stand side by side are repeats in other runs, samples, wells, individuals or studies. Additions like (4×) count equal records among those shown.
Test system: NCI-H1341 complex spheroids, percent test/control
Assay: Anticancer human tumor NCI-H1341 cell line growth inhibition [AhR];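 also: spheroids exposed to agents for seven days before readout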
Conditions: for viability, T/C: stronger effect = lower value; for IC50: compound alone
Text: Multicellular complex tumor spheroid response to aryl hydrocarbon receptor antagonists in combination with a variety of drugs and investigational agents in selected tumor cell lines
The current study was undertaken to assess response to aryl hydrocarbon receptor antagonists in combination with standard-of-care drugs and investigational agents in solid tumor complex spheroid models. Complex spheroids include a stromal component modeled by human endothelial cells (HUVEC) and fibroblasts modeled by human mesenchymal stem cells (MSCs). The concentration ranges selected for each drug and investigational agent were based upon clinically achievable concentrations if the clinical Cmax of the agent was known.
Compounds. The drugs and investigational agents: BAY 2416964 (NSC825713), GNF351 (NSC835774), CH-223191 (NSC835775), CPI-455 (NSC825282), aza-TdCyd (NSC777586), decitabine (NSC127716), belinostat (NSC758774), entinostat (NSC756642), pevonedistat (NSC761192), tazemetostat (NSC777109), talazoparib (NSC765396), olaparib (NSC753686), selinexor (NSC780203), nedisertib (M3814, NSC802822), bortezomib (NSC756655), venetoclax (NSC766270), doxorubicin (NSC123127), elimusertib (BAY189344, NSC800525), ceralasertib (AZD6738, NSC777638), TAK-243 (NSC785004), alisertib (NSC759677), etoposide (NSC141540), topotecan (NSC609699), eribulin (NSC707389), gemcitabine (NSC613327), carboplatin (NSC241240), cisplatin (NSC119875), and SN-38 (NSC673596) were obtained from the National Cancer Institute (NCI) Developmental Therapeutics Program Chemical Repository (32). The FDA-approved anticancer drug set is available from the Developmental Therapeutics Program at https://dtp.cancer.gov/organization/dscb/obtaining/available plates.htm. […] The stock solutions were prepared in dimethyl sulfoxide (DMSO, Sigma-Aldrich, St. Louis, MO, cat. D2650), except for the platinum compounds which were prepared in saline (Quality Biological, Gaithersburg, MD, cat. 114-055-101), at 800-fold the tested concentration and stored at -70 degrees C prior to their use. All drugs and investigational agents were tested over a range starting from a high concentration at or near the clinical Cmax and decreasing in half-log increments. If the clinical Cmax for an agent had not been determined, the highest concentration tested was 10 microM (Table 1).
Cell Culture. All cells were maintained in an incubator at 37 degrees C and 5% CO2 with 95% humidity. The PDC lines were cultured according to standard operating procedures established by the NCI PDMR (https://pdmr.cancer.gov). Briefly, all PDCs were thawed and cultured in Matrigel-coated flasks prepared with a working solution of 1X Ham's F-12 nutrient mix, without supplementation (Invitrogen, Waltham, MA, cat. 11765054), 100 U/mL penicillin-streptomycin (Invitrogen, cat. 15140122), and 2.5% Matrigel (Corning Inc., Corning, NY, cat. 354248) for the first three passages. All PDCs were cultured in complete DMEM/F-12 media containing advanced DMEM/F-12 (Invitrogen, cat. 12634028), 4.9% defined fetal bovine serum, heat inactivated (HyClone Laboratories Inc., Logan, UT, cat. SH30070.03HI), 389 ng/mL hydrocortisone (Sigma-Aldrich, cat. H4001), 9.7 ng/mL human EGF recombinant protein (Invitrogen, cat. PHG0313), 23.4 microg/mL adenine (Sigma-Aldrich, cat. A2786), 97.3 U/mL penicillin-streptomycin (Invitrogen, cat. 15140122), 1.9 mM L-glutamine (Invitrogen, cat. 25030081), and 9.7 microM Y-27632 dihydrochloride (Tocris Bioscience, Bristol, United Kingdom, cat. 1254). The PDCs were cultured in complete DMEM/F12 media without 10 microM Y-27632 dihydrochloride for at least two passages prior to the screen. The established cell lines NCI-H1341 and […] were cultured in DMEM/F-12, HEPES (Invitrogen, cat. 11330032), 5% defined fetal bovine serum (HyClone Laboratories Inc., cat. SH30070.03), ITS premix universal culture supplement [insulin (5 microg/mL), transferrin (5 microg/mL), and selenious acid (5 ng/mL)] […]

Compound	viability, T/C (compound alone 0.1 µM)	viability, T/C (compound alone 0.316 µM)	viability, T/C (compound alone 1 µM)	viability, T/C (compound alone 3.16 µM)	IC50 (NCI-H1341 complex spheroids, drug combinations, percent test/control, run of 07/26/2022)	IC50	IC50 (NCI-H1341 complex spheroids, drug combinations, percent test/control, run of 07/18/2022)	viability, T/C (compound alone 10 µM)
CC(CO)NC(=O)c1cc(-c2ccc(Cl)cc2)nn(-c2cnn(C)c2)c1=O (stereo unspecified)	97.8, 91, 86.1, 87.1, 103, 95.2, 89.1, 83.2, 84.6, 92.4, 93.2, 92.6, 96.2, 72.4, 101, 92.7, 94.8, 86, 92.9, 90.9%	81.3, 88.1, 83.6, 83.9, 96.9, 92.5, 82.8, 77.9 (2×), 85.2, 95.7, 91.6, 75.4, 90.6, 81.5, 102, 90.9, 80.5, 92.2, 80.2, 87.1%	83.3, 70.7, 91 (2×), 87.1 (2×), 110, 69, 94.8, 79.8, 100, 77.7, 94.2, 108, 96.1, 63.6, 88.6, 80.8, 89.4, 81, 74.7%	88, 77.7, 93.4, 96.7, 89.9, 91.3, 72.5, 72.1, 78.4, 78.9, 87.7, 86.4, 82.4, 68.8, 93.5, 92.8, 84, 82.8, 74.4%				
Cc1ccccc1N=Nc1ccc(NC(=O)c2ccnn2C)c(C)c1	87.3, 89.1 (2×), 93.1, 84.7, 115, 97.7, 86.7, 92.6 (2×), 99.6, 116, 107, 89.4, 88.8, 92.1, 87.9, 85.6, 84.4, 94.5%	117, 106 (3×), 93.6, 90.9, 98.9, 110, 79.4, 75.5, 78.5, 87.8, 114, 86.3, 83, 88.2, 88.5, 103, 98.6, 89.2%	88.2, 84.5, 100, 90.5, 95.9, 81, 83.9, 97.1, 91.2, 96.7, 97.8, 89.3, 106, 87.3, 89.5, 92.4, 93.9, 86, 69.4, 91.9%	75.9, 71.2, 69.7, 74.7, 75.2, 72.1, 73.3, 58.1, 79.5, 84.4, 83.2, 79.1, 78.1, 72, 67.3, 73.7, 74.9, 73.6, 70.4, 68.5%	> 10 µM, 8.98 µM, 6.79 µM, 9.82 µM, 9.97 µM			
COc1cc(C2c3cc4c(cc3C(OC3OC5COC(C)OC5C(O)C3O)C3COC(=O)C23)OCO4)cc(OC)c1O (stereo unspecified)						1.53 µM, 836 nM, > 10 µM		
Cc1cncc(-c2nc(NCCc3c[nH]c4ccccc34)c3ncn(C(C)C)c3n2)c1	82.8, 79.4, 89.6, 88.6, 91.2, 91.5, 89.7 (2×), 88.5, 67.9, 83.8, 85.7, 99.1, 111, 87.7, 85, 71.9, 90.3, 89, 73.6%	78.4, 80.4, 84.6, 79.5, 82.1, 86.1 (2×), 85.7, 79.7, 86.5, 80.2, 68.4, 78.8, 105, 82.8, 81, 87.4, 73.5, 77, 88%	85.8, 87.5, 94.7, 82.6, 76.2, 75.2, 83.3, 80.1, 86.6, 83.6, 81.3, 68.8, 83, 67, 85.9, 84, 88.8, 88, 84.4%	78.8 (2×), 75.2, 67.8, 81.6, 82.5, 69.8, 73.2, 66.6, 67.6, 68.3, 79.1, 80.1, 80.6, 77.5, 70.7, 72.2, 86.1, 54.1, 76.8%			6.26 µM, 5.93 µM, 4.87 µM, 6.12 µM, > 10 µM, 4.89 µM, 5.27 µM, 4.77 µM, 4.88 µM, 4.91 µM, 7.6 µM, 6.93 µM, 8.48 µM, 6.65 µM, 7.65 µM, 4.08 µM, 6.91 µM, 6.58 µM, 4.78 µM, 2.13 µM, 4.7 µM, 4.82 µM, 3.88 µM	30, 28.9, 20.3 (2×), 26.5, 58.6, 23.1, 21.5, 20.8, 20.9, 41, 45.1, 37.2 (2×), 45.5, 38.8, 43, 34.4, 35.6, 33.4, 15%

From PubChem BioAssay AID1919014 (Molecular Pharmacology Branch, DTP, NCI, 2023)
